Some of the results follow. Rule as the data show it: active = 3.2 or more and inactive = the rest. Only a few entries rise above the background.
What was measured:
Assay in all cases: enrichment score (SH2-bound / input frequency) (ratio); bacterial display of known human phosphotyrosine sites (pTyr-Var adds point mutants) read by sequencing; higher = stronger binding; tyrosines were phosphorylated by kinases first
Details in all cases: peptide library: pTyr-Var
SHP2 C-SH2 domain E139D = biological target: SHP2 C-SH2 domain E139D
[1] = biological target: SHP2 C-SH2 domain wild-type
SHP2 N-SH2 domain L43F = biological target: SHP2 N-SH2 domain L43F
SHP2 N-SH2 domain T42A = biological target: SHP2 N-SH2 domain T42A
SHP2 N-SH2 domain T52S = biological target: SHP2 N-SH2 domain T52S
[2] = biological target: SHP2 N-SH2 domain wild-type

Measured: enrichment score
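Also: displayed peptides selected on beads carrying the immobilized SH2 domain, with library peptides lacking any tyrosine serving as negative controls.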

ELPEKYSQNIC [PKP2_Y626_Y631C]
inactive: SHP2 C-SH2 domain E139D 0.608 | [1] 0.741 | SHP2 N-SH2 domain L43F 0.6 | SHP2 N-SH2 domain T42A 0.673 | SHP2 N-SH2 domain T52S 0.601 | [2] 0.721

EDGRLYAVKRS [PKMYT1_Y136]
inactive: SHP2 C-SH2 domain E139D 0.532 | [1] 0.485 | SHP2 N-SH2 domain L43F 0.423 | SHP2 N-SH2 domain T42A 0.505 | SHP2 N-SH2 domain T52S 0.485 | [2] 0.583

DKGTLYIVEQI [PLBD1_Y375]
inactive: SHP2 C-SH2 domain E139D 0.765 | [1] 0.998 | SHP2 N-SH2 domain L43F 0.629 | SHP2 N-SH2 domain T42A 0.744 | SHP2 N-SH2 domain T52S 0.707 | [2] 1.05

LVPPRYVRSEI [PKP2_Y194_A195V]
inactive: SHP2 C-SH2 domain E139D 0.766 | [1] 0.735 | SHP2 N-SH2 domain L43F 0.454 | SHP2 N-SH2 domain T42A 0.54 | SHP2 N-SH2 domain T52S 0.498 | [2] 0.566

HSDYQYGQRSQ [PKP2_Y168_S169G]
inactive: SHP2 C-SH2 domain E139D 0.568 | [1] 0.484 | SHP2 N-SH2 domain L43F 0.535 | SHP2 N-SH2 domain T42A 0.562 | SHP2 N-SH2 domain T52S 0.509 | [2] 0.379

CNLDTYQKRLR [PLA2G2D_Y126_R121C]
inactive: SHP2 C-SH2 domain E139D 0.582 | [1] 0.625 | SHP2 N-SH2 domain L43F 0.469 | SHP2 N-SH2 domain T42A 0.536 | SHP2 N-SH2 domain T52S 0.67 | [2] 0.544

HSDYQYSQRSQ [PKP2_Y168]
inactive: SHP2 C-SH2 domain E139D 0.486 | [1] 0.669 | SHP2 N-SH2 domain L43F 0.555 | SHP2 N-SH2 domain T42A 0.537 | SHP2 N-SH2 domain T52S 0.739 | [2] 0.917

FMRGMYFRMTD [PLA2G6_Y541_K545T_YF]
inactive: SHP2 C-SH2 domain E139D 1.03 | [1] 1.28 | SHP2 N-SH2 domain L43F 0.856 | SHP2 N-SH2 domain T42A 1.02 | SHP2 N-SH2 domain T52S 0.942 | [2] 0.911

HSDFQYSQRSQ [PKP2_Y168_YF]
inactive: SHP2 C-SH2 domain E139D 0.764 | [1] 0.847 | SHP2 N-SH2 domain L43F 0.647 | SHP2 N-SH2 domain T42A 0.587 | SHP2 N-SH2 domain T52S 0.951 | [2] 0.623

HSDFQYGQRSQ [PKP2_Y168_S169G_YF]
inactive: SHP2 C-SH2 domain E139D 0.685 | [1] 0.57 | SHP2 N-SH2 domain L43F 0.473 | SHP2 N-SH2 domain T42A 0.548 | SHP2 N-SH2 domain T52S 0.636 | [2] 0.612

FTHSDYQFSQR [PKP2_Y166_YF]
inactive: SHP2 C-SH2 domain E139D 0.806 | [1] 0.697 | SHP2 N-SH2 domain L43F 0.764 | SHP2 N-SH2 domain T42A 0.676 | SHP2 N-SH2 domain T52S 0.613 | [2] 0.905

SEPDLYFDPRG [PKP1_Y160_C161Y_YF]
inactive: SHP2 C-SH2 domain E139D 0.709 | [1] 0.661 | SHP2 N-SH2 domain L43F 0.655 | SHP2 N-SH2 domain T42A 0.709 | SHP2 N-SH2 domain T52S 0.603 | [2] 0.686

NGRQCYSCRGN [PLAUR_Y217_K220R]
inactive: SHP2 C-SH2 domain E139D 1.69 | [1] 1.78 | SHP2 N-SH2 domain L43F 1.64 | SHP2 N-SH2 domain T42A 1.6 | SHP2 N-SH2 domain T52S 1.8 | [2] 1.71

PVPKTYDMLKA [PKP2_Y108]
inactive: SHP2 C-SH2 domain E139D 0.749 | [1] 0.901 | SHP2 N-SH2 domain L43F 0.825 | SHP2 N-SH2 domain T42A 0.609 | SHP2 N-SH2 domain T52S 0.721 | [2] 1.18

YMRGMYFRMTD [PLA2G6_Y541_K545T]
inactive: SHP2 C-SH2 domain E139D 2.3 | [1] 2.82 | SHP2 N-SH2 domain L43F 2.17 | SHP2 N-SH2 domain T42A 1.92 | SHP2 N-SH2 domain T52S 2.26 | [2] 2.22

QGCSIYKDFFR [PLA2G2D_Y82_YF]
inactive: SHP2 C-SH2 domain E139D 1.27 | [1] 0.989 | SHP2 N-SH2 domain L43F 1.25 | SHP2 N-SH2 domain T42A 1.26 | SHP2 N-SH2 domain T52S 1.23 | [2] 1.26

QGCGIYKDYYR [PLA2G2D_Y82_S80G]
inactive: SHP2 C-SH2 domain E139D 1.19 | [1] 1.27 | SHP2 N-SH2 domain L43F 1.14 | SHP2 N-SH2 domain T42A 1.2 | SHP2 N-SH2 domain T52S 1.05 | [2] 1.57

DKGTLYIAEQI [PLBD1_Y375_V377A]
inactive: SHP2 C-SH2 domain E139D 0.747 | [1] 0.821 | SHP2 N-SH2 domain L43F 0.856 | SHP2 N-SH2 domain T42A 0.684 | SHP2 N-SH2 domain T52S 0.793 | [2] 1.14

LVPPRYARSEI [PKP2_Y194]
inactive: SHP2 C-SH2 domain E139D 0.69 | [1] 0.775 | SHP2 N-SH2 domain L43F 0.834 | SHP2 N-SH2 domain T42A 0.629 | SHP2 N-SH2 domain T52S 0.676 | [2] 0.666

Source: the supplement of paper PMC10369915
